# Test results from article PMC4336329 (PLoS ONE, 2015).
# The whole screen tested about 310,000 compounds, of which about 2,200 (0.71%) showed an effect of 50% or more. The effect is printed as a negative number. Some of the results follow.
# Target: human ether-à-go-go-related gene (hERG) potassium channel (human, UniProt Q12809)
# Assay: primary screen, population patch clamp on CHO cells stably expressing hERG
# human ether-à-go-go-related gene (hERG) potassium channel, sequence (Q12809 whole entry, looked up): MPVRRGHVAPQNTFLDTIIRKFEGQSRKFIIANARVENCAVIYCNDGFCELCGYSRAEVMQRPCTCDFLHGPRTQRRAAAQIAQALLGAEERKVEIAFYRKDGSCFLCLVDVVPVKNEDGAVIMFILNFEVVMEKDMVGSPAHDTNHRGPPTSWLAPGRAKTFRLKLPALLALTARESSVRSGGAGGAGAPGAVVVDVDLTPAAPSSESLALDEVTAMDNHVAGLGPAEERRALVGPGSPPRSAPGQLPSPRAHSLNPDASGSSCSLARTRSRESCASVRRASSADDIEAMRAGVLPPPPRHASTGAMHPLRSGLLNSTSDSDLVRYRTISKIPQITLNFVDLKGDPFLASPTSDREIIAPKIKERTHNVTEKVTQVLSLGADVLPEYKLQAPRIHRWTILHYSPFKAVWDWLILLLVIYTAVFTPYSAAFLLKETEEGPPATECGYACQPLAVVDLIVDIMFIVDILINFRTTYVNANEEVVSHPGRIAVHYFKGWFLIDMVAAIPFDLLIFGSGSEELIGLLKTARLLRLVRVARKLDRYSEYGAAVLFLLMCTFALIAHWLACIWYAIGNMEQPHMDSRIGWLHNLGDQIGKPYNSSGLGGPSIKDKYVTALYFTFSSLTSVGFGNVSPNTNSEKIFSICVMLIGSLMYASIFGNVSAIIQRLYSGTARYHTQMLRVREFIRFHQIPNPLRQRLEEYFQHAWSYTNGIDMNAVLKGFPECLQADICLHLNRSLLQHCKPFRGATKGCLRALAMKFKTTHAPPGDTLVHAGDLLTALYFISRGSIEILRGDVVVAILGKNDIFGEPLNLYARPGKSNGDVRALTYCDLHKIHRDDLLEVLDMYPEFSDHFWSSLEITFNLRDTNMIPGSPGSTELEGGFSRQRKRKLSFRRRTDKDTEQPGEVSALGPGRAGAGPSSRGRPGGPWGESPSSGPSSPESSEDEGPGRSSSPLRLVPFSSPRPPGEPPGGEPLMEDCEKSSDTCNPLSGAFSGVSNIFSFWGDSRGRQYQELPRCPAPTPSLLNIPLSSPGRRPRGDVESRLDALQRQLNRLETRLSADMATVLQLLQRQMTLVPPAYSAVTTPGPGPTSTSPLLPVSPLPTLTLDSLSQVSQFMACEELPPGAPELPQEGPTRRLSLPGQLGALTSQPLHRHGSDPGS
row,SMILES,"hERG current change (%, negative = inhibition) at 1uM"
1,CCN(CC)CC(C)(C)NS(=O)(=O)c1ccc(Cl)cc1,5.99%
2,CCc1c(C2(O)CCCCC2)[nH]c2ncccc12,11%
3,CCOc1cc(C(F)(F)F)cnc1/C(N)=N/O,15.4%
4,Cc1ccc(/C=N/Nc2nc(C)cc(C)n2)cc1,11.6%
5,Cc1c(C(=O)Nc2ccc(N3CCOCC3)cc2)oc2ccccc12,12.3%
6,COc1cccc(N(CC(=O)NC2CCCCCC2)S(=O)(=O)c2ccccc2)c1,12.1%
7,CC12CCC(C(=O)N(c3cccc(Cl)c3)C1=O)C2(C)C (stereo not shown),4.37%
8,Cn1c(=O)c(=O)n(C)c2cc(S(=O)(=O)N3CCOc4ccccc43)ccc21,0.459%
9,CCCCCC[n+]1c(-c2ccccc2)csc1Nc1ccccc1.[Br-],1.91%
10,COc1ccc(N(Cc2cc3ccc(C)cc3[nH]c2=O)C(=O)C2CCCO2)cc1 (stereo not shown),3.6%
11,CCOC(=O)CCc1c(C)n(CC)c2ncnn2c1=O,8.01%
12,COc1ccc(OC(C)C(=O)N(C)Cc2nc(-c3ccc(OC)cc3)no2)cc1 (stereo not shown),-2.83%
13,COc1cc(OC)cc(C(=O)N2CCN(C(=O)c3ccc(OC)c(OC)c3)CC2)c1,-2.4%
14,COc1ccc(NC(=O)c2cccc3ccccc23)cc1,2%
15,COc1ccc(CC(=O)Nc2ccc(S(=O)(=O)Nc3nccs3)cc2)cc1,2.74%
16,CC1C2CC(C/C2=N/NC(=O)c2cccs2)C1(C)C (stereo not shown),-2.51%
17,CCOc1ccc(NC(=O)C2CCCN2S(=O)(=O)c2ccc(OCC)cc2)cc1 (stereo not shown),27.9%
18,CC(C)NC(=O)c1n[nH]c(=O)c2ccccc12,3.37%
19,O=c1c(-c2ccnn2-c2ccccc2F)cnc2n1CCS2,1.93%
20,Cc1cc(/C=C2\SC(=O)NC2=O)c(C)n1-c1ccc(N(C)C)cc1,8.8%
21,COc1cc(C(=O)NCCOC(=O)c2cccc(N(C)C)c2)cc(OC)c1OC,1.61%
22,O=C(Nc1cc(S(=O)(=O)N2CCCCCC2)ccc1OCC(F)(F)F)c1cnccn1,10.8%
23,O=c1cc(O)nc(-c2ccccc2)s1,19.6%

row,SMILES,"hERG current change (%, negative = inhibition) at 1uM"
1,CCCC(=O)Nc1ccc(N2CCN(S(C)(=O)=O)CC2)cc1,14.3%
2,O=S1(=O)CCO[C@H]2Cc3ccccc3[C@H]2N1Cc1ccc(Cl)cc1,13.9%
3,O=C(CN1C(=O)NC2(CCCC2)C1=O)NCCC1=CCCCC1,14.9%
4,O=S(=O)(Nc1ccc(-n2cnnn2)cc1)c1cccs1,6.9%
5,COc1cccc(NC(=O)CN(C)C(=O)CNC(=O)c2ccc3ccccc3c2)c1,7.31%
6,CCOC(=O)N1CCN(Cc2nc(-c3ccccc3)no2)CC1,8.85%
7,O=C(c1cn(Cc2ccccc2)nc1-c1ccc(Cl)cc1)N1CCN(c2ccccn2)CC1,-1.17%
8,Cc1cccc(CCN=c2c([N+](=O)[O-])nn(-c3ccccc3)n2O)c1,12.5%
9,O=C1SCCC1NC(=O)C(c1ccccc1)c1ccccc1 (stereo not shown),8.49%
10,Cc1ccccc1NS(=O)(=O)c1c(C(=O)N2CCCCCC2)c(C)n(C)c1C,9.07%
11,CC(COS(N)(=O)=O)Cc1ccc(C(F)(F)F)cc1 (stereo not shown),8.1%
12,COc1ccccc1/C=C1\C(=O)NC(=S)N(c2ccccc2)C1=O,14.8%
13,CC(C)N1CCN(Cc2nc3ccccc3s2)CC1CCO (stereo not shown),-4.26%
14,Cc1c(C(=O)NC(C)C)oc2c1-c1[nH]ncc1CC2,11%
15,O=C(Nc1cccc(NC(=O)C2CCCO2)c1)C1CCCO1 (stereo not shown),5.51%
16,CCn1c(CSCc2ccc(C)cc2)n[nH]c1=S,21.6%
17,Cc1ccccc1NC(=O)CSc1nnc2ccc(-c3ccncc3)nn12,-22.8%
18,COc1cc(CNCCNC(=O)c2cccs2)cc(OC)c1OC,11.6%
19,O=C(Nc1ccc(Br)cc1C(=O)O)c1ccc2c(c1)C(=O)N(Cc1ccccc1)C2=O,7.53%
20,Cc1cc([N+](=O)[O-])nn1CC(=O)NCCCN1CCOCC1,7.37%
21,Cc1onc(-c2c(F)cccc2Cl)c1C(=O)Nc1cccc(S(=O)(=O)NC2=NCCC2)c1,12.7%
22,CC1C/C(=N/N=C2/NC(=O)CS2)CC(C)(C)C1 (stereo not shown),7.26%
23,Cc1ccc(S(=O)(=O)N2CCOCCOCCOCCOCCOCC2)cc1,3.2%

row,SMILES,"hERG current change (%, negative = inhibition) at 1uM"
1,Cc1ccc(-c2n[nH]c(=S)n2/N=C/c2ccc(C(=O)O)cc2)cc1,8.04%
2,NC(=O)Cn1nc([N+](=O)[O-])nc1Oc1ccccc1F,7.7%
3,CCCCN(CC)S(=O)(=O)c1c(C)[nH]c(=O)[nH]c1=O,7.23%
4,CC(C)OCCCn1c(NN)nc2ccccc2c1=O,15.2%
5,COc1ccc2nc(SCC(C)=O)c(C#N)cc2c1,1.85%
6,O=C(Nc1cccnc1)c1ccc(Cl)c(S(=O)(=O)N2CCCC2)c1,15.7%
7,Cc1[nH]c(=O)[nH]c(=O)c1S(=O)(=O)N1CCCC(C(=O)NCc2ccco2)C1 (stereo not shown),5.98%
8,C=CCn1c(C)cc(C(=O)COC(=O)/C=C/c2c(C)nn(C3CCS(=O)(=O)C3)c2Cl)c1C (stereo not shown),13.8%
9,CCOC(=O)c1ccc2[nH]c(C)cc(=O)c2c1,2.81%
10,CCOC(=O)N1CCN(C(=O)c2cc3cc(F)ccc3[nH]2)CC1,9.05%
11,CC(C)CCN1C(=O)c2ccc(C(=O)Nc3ccc(O)cc3C(=O)O)cc2C1=O,8.64%
12,C#CCN(C(=O)CC1C(=O)NCCN1C/C=C/c1ccccc1)C1CCCCC1 (stereo not shown),12.5%
13,COc1ccc(Nc2nc(-c3c[nH]c4ccccc34)cs2)cc1,10.4%
14,COc1ccc(Cl)cc1N(C(C)C(=O)NC1CCCC1)S(C)(=O)=O (stereo not shown),6.74%
15,CC1(C)CC(=O)C=C(NCC(O)c2ccccc2)C1 (stereo not shown),14.7%
16,Cc1cc(N/N=C\c2ccc(Br)cc2)nc(-n2nc(C)cc2C)n1,17.8%
17,CCCCn1c(N)c(N(CCOC)C(=O)c2nn(CC)c(=O)c3ccccc23)c(=O)[nH]c1=O,9.16%
18,O=C(Cc1ccc(-n2c(=O)[nH]c3ccccc3c2=O)cc1)N1CCN(c2cccc(Cl)c2)CC1,0.998%
19,CN1CCN(C(=O)c2c(O)c3cccc4c3n(c2=O)CC4)CC1.Cl,12.3%
20,Cn1c(SCC(=O)Nc2ccc3c(c2)OCCO3)nnc1-c1ccncc1,9.72%
21,COc1ccc(-c2cc(C(=O)NCc3cccnc3)no2)cc1OC,5.34%
22,C=CCSC(=S)NC1CCS(=O)(=O)C1 (stereo not shown),5.2%
23,COc1ccc(S(=O)(=O)NCc2ccncc2)cc1NC(=O)c1ccccc1F,13.9%

row,SMILES,"hERG current change (%, negative = inhibition) at 1uM"
1,Cc1ccc(-n2nc3cc(C)c(N)cc3n2)cc1,13.3%
2,C=CCNC(=O)CN1CCN(C(c2ccccc2)c2ccccc2)CC1.O=C(O)C(=O)O,11.1%
3,CCC1(c2ccc(F)cc2)NC(=O)N(CC(=O)Nc2ccc(-c3nc4ccc(C)cc4s3)cc2)C1=O (stereo not shown),10.7%
4,CCN(CC)c1ccc(/C=C(/C#N)c2nc3ccccc3[nH]2)c(OC(C)C)c1,-0.153%
5,COc1ccc(CCNC(=O)C2CCN(S(=O)(=O)N3CCC4(CC3)OCCO4)CC2)cc1OC,5.86%
6,Cc1ccc(S(=O)(=O)NCC2COc3ccccc3O2)cc1 (stereo not shown),6.71%
7,Cc1nn(-c2ccccc2)nc1C(=O)Nc1ccc2[nH]ncc2c1,3.94%
8,CC(C)Cc1nc(C(N)=O)c2[nH]c(=O)n(-c3ccc(F)cc3)c2n1,9.99%
9,Cc1cc(C)c(C#N)c(OCc2ccc(Cl)nc2)n1,11.8%
10,Cc1cccc(Nc2nc3ccccc3s2)c1C,4.7%
11,Cc1cc(NS(C)(=O)=O)c(=O)n(Cc2c(F)cccc2Cl)c1,13.3%
12,CC(=O)c1c(C)[nH]c(C(=O)COC(=O)CCSc2ccccc2)c1C,16%
13,O=C(COC(=O)c1cc(=O)[nH]c2ccccc12)NC1CCCC1,13.5%
14,Cn1c(=O)oc2cc(S(=O)(=O)Nc3cccc4c3CCCC4)ccc21,12.1%
15,CC(=O)C1=C(C)OC(N)=C(C#N)C1c1cccnc1 (stereo not shown),-4.54%
16,COC(=O)c1ccc(NC(C(=O)OC)C(C)C)c([N+](=O)[O-])c1 (stereo not shown),3.82%
17,C#CCCOC(=O)N1C2=NC(C(=O)OC)=C(C(=O)OC)[C@@H]3Nc4ccccc4[C@]23C[C@H]1C(=O)OC,10.1%
18,CCC(C)Sc1nnc(NC(=O)C2CCN(C(=O)c3ccco3)CC2)s1 (stereo not shown),-26.8%
19,CCc1ccc(N2CC(C(=O)Nc3ccc(C)c(S(=O)(=O)N4CCOCC4)c3)CC2=O)cc1 (stereo not shown),-2.8%
20,O=C(N[C@@H](Cc1ccccc1)C(=O)Nc1ccc(F)cc1)C1CCNCC1,14.4%
21,O=S(=O)(NCCC1=CCCCC1)c1ccc(OC(F)(F)F)cc1,-18.1%
22,COc1ccc(S(=O)(=O)Nc2c(C)c(C)cc3c2ncn3C)cc1,3.58%
